Measurements as given in PMC4336329 (PLoS ONE, 2015).
Screen size: about 310,000 compounds; about 2,200 (0.71%) showed an effect of 50% or more. Effects have a minus sign here. Some of the results follow.

biological target: human ether-à-go-go-related gene (hERG) potassium channel (human, UniProt Q12809); test: primary screen, population patch clamp on CHO cells stably expressing hERG
Sequence (Q12809 whole entry, looked up): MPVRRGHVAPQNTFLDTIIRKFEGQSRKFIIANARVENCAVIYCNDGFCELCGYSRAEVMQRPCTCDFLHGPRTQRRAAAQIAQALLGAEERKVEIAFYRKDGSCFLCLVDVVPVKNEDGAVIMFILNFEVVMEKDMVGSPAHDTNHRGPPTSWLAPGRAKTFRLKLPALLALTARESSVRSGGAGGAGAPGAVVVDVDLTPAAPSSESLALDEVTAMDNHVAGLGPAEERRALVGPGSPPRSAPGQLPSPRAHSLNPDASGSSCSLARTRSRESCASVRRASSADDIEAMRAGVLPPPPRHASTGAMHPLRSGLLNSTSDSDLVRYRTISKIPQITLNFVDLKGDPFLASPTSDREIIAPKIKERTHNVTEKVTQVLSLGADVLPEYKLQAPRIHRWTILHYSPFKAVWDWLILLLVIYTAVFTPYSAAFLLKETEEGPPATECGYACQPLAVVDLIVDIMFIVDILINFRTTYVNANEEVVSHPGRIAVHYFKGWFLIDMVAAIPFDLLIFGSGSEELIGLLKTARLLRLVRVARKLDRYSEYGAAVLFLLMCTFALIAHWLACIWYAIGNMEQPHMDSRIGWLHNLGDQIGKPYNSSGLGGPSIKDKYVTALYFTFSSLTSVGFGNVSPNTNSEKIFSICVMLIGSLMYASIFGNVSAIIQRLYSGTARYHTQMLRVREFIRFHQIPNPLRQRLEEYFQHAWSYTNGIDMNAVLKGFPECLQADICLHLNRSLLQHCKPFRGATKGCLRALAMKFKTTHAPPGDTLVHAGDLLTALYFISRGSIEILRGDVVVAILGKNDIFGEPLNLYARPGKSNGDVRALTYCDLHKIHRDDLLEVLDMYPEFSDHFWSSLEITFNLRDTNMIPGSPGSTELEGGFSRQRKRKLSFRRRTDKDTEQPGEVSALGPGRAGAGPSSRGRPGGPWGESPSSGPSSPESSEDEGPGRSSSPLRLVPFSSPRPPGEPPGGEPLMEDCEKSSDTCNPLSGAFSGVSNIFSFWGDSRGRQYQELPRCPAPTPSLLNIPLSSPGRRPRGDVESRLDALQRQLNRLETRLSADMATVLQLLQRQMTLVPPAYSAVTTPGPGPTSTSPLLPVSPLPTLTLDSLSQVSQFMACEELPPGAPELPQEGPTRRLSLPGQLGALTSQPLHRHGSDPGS

| SMILES | hERG current change (%, negative = inhibition) at 1uM [%] |
| --- | --- |
| CCc1noc(C)c1C(=O)Nc1ccc(C)c(S(=O)(=O)N2CCCCCC2)c1 | 8.12 |
| CO/N=C/C(=N\Nc1cc(OC)cc(OC)c1)C(=O)c1ccccc1 | 10.4 |
| CCOC(=O)c1ccc(NC(=O)NCc2ccccc2)cc1 | 0.459 |
| CNC(=O)c1nnn(Cc2ccccc2)c1NC(C)=O | 12.5 |
| O=C1CCCC(=NCc2ccco2)C1 | 2.32 |
| CCc1cc(C(=O)OC)c(NC(=O)c2cc(Br)cs2)s1 | 0.713 |
| CC(Oc1ccccc1)C(=O)N1CCC2(CC1)Oc1ccc(F)cc1C(=O)C21CC(c2ccc(Cl)cc2)=NO1 (stereo not drawn) | 10.4 |
| COC(=O)c1nc(-c2ccc(C)cc2)oc1N(C)C | 4.87 |
| CCCCc1nnc(NC(=O)Cc2ccc(S(=O)(=O)N3CCOCC3)s2)s1 | 11.9 |
| CC(=O)c1sc(NC(=O)CCS(=O)(=O)c2ccccc2)nc1C | 9.46 |
| Nc1ccc(C(=O)Nc2cccc(NC(=O)c3ccc(N)cc3)c2)cc1 | 13.5 |
| CCOC(=O)c1c(-c2ccc(OC)cc2)csc1NC(=O)CCN1CCOCC1 | 4.98 |
| O=C(CCc1nc2ccccc2c(=O)[nH]1)OCC(=O)c1cccc(Cl)c1 | 9.52 |
| COc1ccc(/C=C/C(=O)Oc2cccc(/C=N/NC(=O)Cc3ccc(Br)cc3)c2)cc1 | 6.97 |
| CC(Oc1ccc(Br)cc1Br)C(=O)NC1CCCC1 (stereo not drawn) | 7.36 |
| CC(NC(=O)c1cc(S(=O)(=O)N2CCOCC2)cn1C)c1ccccc1 (stereo not drawn) | 5.72 |
| Cc1c(NC(=O)CC(O)(C(F)(F)F)C(F)(F)F)c(=O)n(-c2ccccc2)n1C | 12.9 |
| COC(=O)C1=C(c2ccccc2OCc2ccccc2)C[C@@H]2CC[C@H]1N2C(=O)NCc1ccc(C(C)(C)C)cc1 | 12.8 |
| CN1CCc2c(sc(NC(=O)C3CCCCC3)c2C(N)=O)C1.Cl | 7.86 |
| O=C(Cc1ccccc1F)c1ccc(O)cc1O | 13.9 |
| O=C(CCN1N=C(c2ccccc2)CCC1=O)NC1CCCC1 | 20.4 |
| Cc1csc(=O)n1CC(=O)OCC(=O)c1c(N)n(CC(C)C)c(=O)n(C)c1=O | 9.7 |
| O=S(=O)(Nc1ccc(F)cc1Cl)c1ccc(-c2cnc(C3CC3)o2)cc1 | 9.47 |
| COc1cc(-c2ccc(N)c(OC)c2)ccc1N | 6.99 |
| CC(Sc1nnc2ccccn12)C(=O)N1CCc2ccccc2C1 (stereo not drawn) | 6.67 |
| CN(C)C(CNC(=O)CNC(=O)Cc1cccc2ccccc12)c1ccccc1 (stereo not drawn) | 1.34 |
| CCOC(=O)CCC(=O)O[C@H]1[C@H](O[C@@H]2[C@@H](C)[C@H](O[C@H]3C[C@@](C)(OC)[C@@H](O)[C@H](C)O3)[C@@H](C)C(=O)O[C@H](CC)[C@@](C)(O)[C@H](O)[C@@H](C)C(=O)[C@H](C)C[C@@]2(C)O)O[C@H](C)C[C@@H]1N(C)C | 3.84 |

| SMILES | hERG current change (%, negative = inhibition) at 1uM [%] |
| --- | --- |
| COC(=O)c1ccc(N(CC(=O)NC2CCCC2)C(=O)c2ccc(C)s2)cc1 | 14.1 |
| CCOc1ccc2nc(N/C(N)=N/C(=S)Nc3cccc(C)c3)nc(C)c2c1 | 0.992 |
| CN(C)c1ccc(/C=N/NC(=O)c2ccccc2O)o1 | 15.7 |
| Cc1ccc(-c2nc(CN3CCCCC3c3cccc(F)c3)c(C)o2)o1 (stereo not drawn) | 25.8 |
| O=C(O)c1ccc(NC(=O)c2cn(-c3ccccc3)nc2-c2ccccc2)cc1 | 16.4 |
| O=C(CCCNC(=O)c1ccc(Cl)cc1)NCc1ccc(F)cc1 | 8.23 |
| CS(=O)(=O)c1nc([N+](=O)[O-])nn1CCCc1ccccc1 | 14.2 |
| Cc1nn(-c2ccccc2)c2nc(N)c(C#N)c(-c3ccc(F)cc3)c12 | 17 |
| O=C(CN1CCOCC1)Nc1cccc(Br)c1 | 0.83 |
| O=C(CCc1ccccc1)NNC(=O)COc1ccccc1 | 4.06 |
| Clc1ccc(-n2nnnc2CN2CCOCC2)cc1 | 4.32 |
| Cc1c(NS(=O)(=O)c2cc(NC(=O)CCN3CCCC(C)C3)ccc2Cl)c(=O)n(-c2ccccc2)n1C (stereo not drawn) | 11.9 |
| CCN(C(=O)COC(=O)c1cc(OC)c(OC)cc1[N+](=O)[O-])C1CCS(=O)(=O)C1 (stereo not drawn) | 10.9 |
| C/C(=N\Nc1ccccn1)c1ccc(S(=O)(=O)NCc2ccco2)cc1 | 14.7 |
| Cn1c(CCN2CCCC2)nc2cc(NS(=O)(=O)c3ccc(Cl)cc3)ccc21 | -62 |
| CCN1CCCc2cc(CN(CCN3CCOCC3)C(=S)Nc3cccc(Cl)c3)ccc21 | 8.35 |
| O=C1c2ccccc2-c2ccc(C(=O)N3CCCCC3)cc21 | 1.92 |
| Cc1c(CC(=O)NCCCC(=O)O)c(=O)oc2cc3c(cc12)CCC(C)(C)O3 | 6.03 |
| Cc1c(C(=O)Nc2ccc(F)cc2)sc2ncn(CC(=O)N3CCCCC3)c(=O)c12 | 17.8 |
| Cc1sc2nc(SCC(=O)Nc3ccc(S(N)(=O)=O)cc3)[nH]c(=O)c2c1C | 6.87 |
| N/C(Cc1ccc([N+](=O)[O-])cc1)=N\OC(=O)c1ccc(Br)cc1 | -3.44 |
| COC(=O)c1c(NC(=O)CSc2ccccc2N)sc(C)c1C | 12.3 |
| O=CO.c1ccc2c(c1)CSc1sccc1C2=C1CCNCC1 | 9.68 |
| O=C(NCCCNCc1ccccc1)/C(=N\O)c1ccccc1 | 4.17 |
| CCOC(=O)c1sc(=S)n(-c2ccc(C)cc2)c1SC | 13.1 |
| CCC(=O)Nc1ccc(S(=O)(=O)Nc2ncccn2)cc1 | 20.2 |
| CC(C)Sc1nc2c(c(=O)[nH]c(=O)n2C)n1CC(O)COc1ccccc1 (stereo not drawn) | 13.3 |
